Measurements published in the supplement of paper PMC3334620.
Over roughly 33,000 sequences, “E-score (-0.5 to 0.5)” has its median near -0.01; the highest 2% begin near 0.26. This is one part of the list.

Each sequence was assayed against Ste12 (UniProt P13574) (assay: PBM E-score (8-mer binding enrichment) (E-score (-0.5 to 0.5)); higher = stronger / more preferred TF binding; most listed sequences are background and not binding sites). Details: protein concentration: 200 nM; construct: GST-DNA-binding domain.
Summary of the method: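 Full-length yeast transcription factors or their DNA-binding domains, GST-tagged and expressed with PURExpress, were applied at about 100-200 nM to universal all-10-mer Agilent arrays. These arrays had been made double-stranded by primer extension on fresh or once-stripped slides. Detection used fluorescent anti-GST, normalisation used masliner, and E-scores for ungapped eight-base words pooled with reverse complements came from the Universal PBM Analysis Suite.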

Row | Sequence | PBM E-score
1 | CTGTTTAC | 0.0415
2 | ACTCTGCC | -0.109
3 | AAAAGACA | 0.146
4 | ACGCACTG | -0.186
5 | GCTATTTA | -0.13
6 | GAAGCATA | 0.0481
7 | ATGACGGA | 0.0141
8 | AATCATCA | 0.142
9 | CATGGAAA | 0.098
10 | ACAGCAGG | 0.16
11 | GAGTGGGA | -0.154
12 | CCCATTAA | -0.1
13 | CCACGCGG | -0.206
14 | GAGCGCTA | -0.0377
15 | GCCAGGAA | -0.03
16 | AGTGACAT | -0.00427
17 | CCAAACAG | -0.0043
18 | GAGTAGAC | -0.084
19 | CAAAGCTC | -0.115
20 | GACCGTCC | -0.189
21 | AACACGTA | -0.00756
22 | AACGTAGG | -0.223

Row | Sequence | PBM E-score
23 | GTTATCCA | 0.00092
24 | CCATAGAC | -0.0106
25 | CCAGTTAA | 0.0557
26 | AATTCATA | 0.129
27 | CCTATTGA | -0.0128
28 | AGACCTAT | 0.0452
29 | AAGCCCAT | -0.103
30 | AACATCAT | 0.0944
31 | AAGGCCAA | -0.267
32 | CTGCCTTC | -0.147
33 | GCTCACCC | 0.0411
34 | CGGGTCAG | 0.0171
35 | CGCGAAAG | -0.00187
36 | CTTACTAA | 0.0533
37 | GATGAGAC | 0.175
38 | CGTGTATA | -0.0309
39 | ATAGCGCA | -0.0209
40 | GCGCAAGA | -0.0203
41 | TACGATCA | 0.0568
42 | ATGTCTTG | -0.0211
43 | AAGCGAAG | 0.102
44 | AGTGAATG | 0.209

Row | Sequence | PBM E-score
45 | ACAATCAT | -0.0149
46 | CTCTGAGA | 0.159
47 | GACTCTTA | 0.116
48 | CCCTGAAC | 0.0241
49 | AACAAAAG | 0.119
50 | GAGCTAGA | -0.0457
51 | AGGCGTCC | -0.0703
52 | GGCGGAAC | -0.021
53 | CATCCAGC | 0.0067
54 | CCATGGCC | 0.0296
55 | AGCTTGCG | -0.151
56 | AATGTAGA | -0.0184
57 | AGAGTTAG | -0.00836
58 | CTGTATAA | -0.00491
59 | TGTACAAA | 0.0309
60 | AGCTCTGC | -0.366
61 | GCTTGTAC | 0.0617
62 | CAATTGGC | 0.109
63 | CCGGAGCA | -0.0401
64 | ACCGAACA | 0.172
65 | ATTCATAG | -7e-05
66 | AAAGTGCG | 0.0163

Row | Sequence | PBM E-score
67 | GTATCCAC | -0.232
68 | TTAGCAAA | 0.168
69 | GCGCCAGA | -0.143
70 | TCCATTAA | 0.156
71 | CTCAAAAG | 0.161
72 | CGTATGCC | -0.282
73 | TACCGCCA | 0.172
74 | GACATAGA | 0.0743
75 | AGTCATCG | -0.0443
76 | TCGTGTAA | 0.0344
77 | GACGGAGA | -0.0869
78 | ACTAACCC | 0.00258
79 | CTGAGAAG | -0.289
80 | ATTGCCCA | -0.122
81 | GAGCCGAC | -0.164
82 | CGCCTATA | 0.012
83 | GCCTTAGA | 0.0798
84 | CCTACACC | -0.0295
85 | CATATGGA | -0.0446
86 | TGACGCCA | -0.0754
87 | AAATTAAT | 0.261
88 | AAGCGAAT | 0.0373

Row | Sequence | PBM E-score
89 | AACTTTAC | -0.0461
90 | ATGCACCA | -0.0677
91 | CACTCGGC | 0.103
92 | AGTCTTTC | -0.0904
93 | CCTCGGGA | -0.0421
94 | AACTACTC | 0.058
95 | CCGGTAGG | -0.265
96 | GCTTCTCA | -0.165
97 | ACGCCTGG | -0.0321
98 | GTTTTTTA | 0.149
99 | AGCTTCAT | 0.146
100 | CGACCCGC | -0.145
101 | CCATATCA | -0.0565
102 | CGGGCAAC | -0.187
103 | GTACCACA | 0.0365
104 | CATAATAG | 0.0435
105 | CCGAGTCC | -0.0874
106 | AAGATGCA | 0.0243
107 | AGACGAAA | 0.155
108 | CCAGCGCC | -0.122
109 | AATCCCAT | -0.0733
